# Laboratory results from PubChem BioAssay AID686978 (National Center for Advancing Translational Sciences (NCATS), 2013).
# Among all 420,000 compounds or so, about 64,000 (15%) were called active. The inconclusive results got no clear call from the source; some entries with a clear call stand among them for comparison. Calls follow the shape of the dose curve; as a rule, active = well fitted inhibition curve with a large enough effect; inconclusive = small, poorly fitted or top-dose-only effect; inactive = flat fitted curve, though single readings scatter. Potencies of inconclusive entries are left out as doubtful fits.
# Assay: qHTS for Inhibitors of human tyrosyl-DNA phosphodiesterase 1 (TDP1): qHTS in cells in absence of CPT; also: nearly all actives have a fitted effect of over 55% in size
# Conditions: DT40 Tdp1-/- hTDP1 cells, no CPT, ATP luminescence, 48 h; activity change, negative = growth inhibition: at 46.2 µM (top of the series) unless noted
# Outline: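 No-CPT arm: Tdp1-/-;hTDP1 DT40 cells (400/well) plus compounds, incubated ≥48 hr at 37 °C. Readout CellTiter-Glo luminescence.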
# % is scaled to controls: 0 for no effect and ±100 for the full control effect; potency is read from the fitted curve at half-maximal effect; tags tell the direction and shape of the fitted curve.
Structure (SMILES),Potency,"activity change, negative = growth inhibition"
CCOc1ccc(CN(C)C(=O)c2ccc3ccccc3n2)cc1,inactive,–
CCOc1ccc(OCC)c(NC(=O)CCc2c(C)nc3c(c2C)c(=O)n(C)c(=O)n3C)c1,–,inconclusive: -32.8% [inhibitor]
CCOc1cc2[nH]c(=S)n(CCCC(=O)NCc3ccccn3)c(=O)c2cc1OCC,"inconclusive [inhibitor, single point]",–
CCCSC1=C(C#N)C(c2ccccc2OCC)CC(=O)N1 (centres undefined),"inconclusive [inhibitor, single point]",–
COc1ccc(CC(=O)Nc2nc(C)cs2)cc1OC,"inconclusive [inhibitor, partial curve]",–
O=c1[nH]c2ccccc2[n+]([O-])c1-c1ccccc1,inactive,–
Cc1c(OC(=O)CNC(=O)OC(C)(C)C)ccc2c3c(c(=O)oc12)CCC3,inactive,–
CCc1nnc(N/N=C/c2cc(Br)c(O)cc2O)n1N,"inconclusive [inhibitor, single point]",–
Cc1ccc(-c2ccc(/C=N/O)o2)cc1[N+](=O)[O-],"inconclusive [inhibitor, single point]",–
CCN(C(=O)Cc1c(C(=O)O)n(C)c2ccccc12)c1cccc(C)c1,inactive,–
NS(=O)(=O)c1ccc(-c2cccc(/C=C3\SC(=O)NC3=O)c2)cc1,"inconclusive [inhibitor, single point]",–
CCC(=O)N1c2ccc(S(=O)(=O)NCCc3ccc(OC)c(OC)c3)cc2CC1C (centres undefined),"inconclusive [inhibitor, single point]",–
COc1cc(C2c3c(oc4ccccc4c3=O)C(=O)N2c2nnc(C(C)C)s2)cc(OC)c1OC (centres undefined),inactive,–
CSCCC(c1nc2ccccc2[nH]1)n1c(-c2ccc3ncccc3c2)nc2ccccc21 (centres undefined),"inconclusive [inhibitor, single point]",–
CCOc1ccccc1CNC(=O)c1cc(-c2ccc(OC)cc2)nc2ccc(C(C)C)cc12,active: 16.4 µM,–
O=C(c1nc2ccc(Cl)cn2c1CN1CCC[C@H]1CO)N1CCc2ccccc2C1,"inconclusive [inhibitor, single point]",–
COc1ccccc1NC(=O)CN1CCN(c2ccccc2OC)CC1,"inconclusive [inhibitor, single point]",–
COc1ccc(/C=C/c2noc(-c3ccccc3O)n2)cc1,"inconclusive [inhibitor, partial curve, poor fit]",–
CC(C)(C)OC(=O)N1CCN(C(=O)c2nc[nH]c2C(=O)N2CCN(c3ccccc3)CC2)CC1,inactive,–
